Test results published in PubChem BioAssay AID652104 (National Center for Advancing Translational Sciences (NCATS), 2013).
Hit rate of the full screen: of about 410,000 compounds, about 7,200 (1.8%) were called active. The shares of active, inactive and inconclusive entries below differ from those in the screen. The call rests on the fitted dose curve; in most records, active means well fitted activation curve with a large enough effect; inconclusive means small, poorly fitted or top-dose-only effect, or another doubt; inactive means no such curve, though single readings can be large or run the other way. No potency is given beside an inconclusive call; the fits are too rough.

Experiment: qHTS of TDP-43 Inhibitors; further: nearly all actives have a fitted effect of over 50% in size; on growth rescue (activation): % of control where 0% means no effect
Conditions: TDP-43 expressing yeast growth rescue, BacTiter-Glo, 24 h; growth rescue (activation): at 46.1 µM (top of the series) unless noted
In short: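 Growth rescue of TDP-43-toxic yeast measured as ATP luminescence (BacTiter-Glo). Cells grown to mid-log in raffinose, induced in galactose at OD600=0.02, exposed to compound 24 hr at 30 deg C.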
Potency means the concentration at half of the fitted maximal effect; tags describe the fitted curve by direction and shape.

Row | Compound | Potency | growth rescue (activation)
1 | Cc1cc(C(=O)N2CCc3ccccc32)ccc1[N+](=O)[O-] | inconclusive [activator, partial curve] | 
2 | S=c1[nH]nc(COc2ccc(Cl)cc2)n1Cc1ccco1 | inconclusive [activator, single point] | 
3 | CCC(C)c1ccc(NC(=O)Nc2cnccn2)cc1 (centres undefined) | inconclusive [activator, partial curve] | 
4 | Cc1ccc(Oc2ccc(S(=O)(=O)N3CCOCC3)cc2C(N)=O)c(-n2nc3ccccc3n2)c1 | inactive | 
5 | O=C(Nc1ccccc1)ON=C1CCCC1 |  | inconclusive: -73.6% [activator]
6 | CC1=C(C(=O)Nc2cccc(F)c2)C2(CCCCCC2)OC1=O | inconclusive [activator, partial curve] | 
7 | O=C(NNC(=O)c1cc(-c2ccccc2)n(-c2ccccc2)n1)c1cccc([N+](=O)[O-])c1 | inconclusive [activator, partial curve] | 
8 | Cc1ccc(-n2ncc3c(NCCc4ccccc4)ncnc32)cc1Cl | inconclusive [activator, partial curve] | 
9 | O=[N+]([O-])c1cccc(-c2nc3ccccc3s/c2=N/O)c1 | inconclusive [activator, single point] | 
10 | CC(Oc1ccc(Br)cc1)C(=O)Nc1ccc(N2CCOCC2)cc1N1CCOCC1 (centres undefined) | inconclusive [activator, single point] | 
11 | O=C(Cc1cccs1)NCc1cccc(Cl)c1 | inconclusive [activator, single point] | 
12 | Cc1cc(C)cc(OCC(=O)N(C)CC(=O)Nc2ccc(Cl)c(C(F)(F)F)c2)c1 | inconclusive [activator, full curve, poor fit] | 
13 | O=C(COc1ccccc1)NC1CCCCCCC1 | inconclusive [activator, partial curve] | 
14 | N#CC(C#N)=C1C=CC=CN1/C(=C\c1ccco1)C(=O)c1ccc(Cl)cc1 | inconclusive [activator, partial curve] | 
15 | Cc1nnc(Nc2ccc(Cl)cc2)s1 | inconclusive [activator, full curve, poor fit] | 
16 | O=C1OC(CN2CCOCC2)CN1N=Cc1ccc([N+](=O)[O-])o1 (centres undefined) | inconclusive [activator, partial curve, poor fit] | 
17 | NS(=O)(=O)c1ccc(CCNC/C=C/c2ccccc2)cc1 | inactive | 
18 | O=C(NN1CCOCC1)c1ccc(Cl)c([N+](=O)[O-])c1 | inactive | 
19 | N#CCCN1CCN(C(=S)c2ccc(-c3ccc(Cl)c(Cl)c3)o2)CC1 | inconclusive [activator, partial curve] | 
20 | Oc1ccccc1-c1nc(NCc2ccco2)c2ccccc2n1 | inconclusive [activator, partial curve] | 
21 | CC(C)C(=O)NCCSc1c[nH]c2ccccc12 | inconclusive [activator, full curve, poor fit] | 
22 | CCc1ccc(NC(=O)C2CCN(c3ccc(Sc4ccc(C)cc4)nn3)CC2)cc1 | inactive | 
23 | O=C(Nc1ccc(Cl)cc1)c1cccs1 | inconclusive [activator, partial curve] | 

Row | Compound | Potency | growth rescue (activation)
24 | CCOc1ccc2nc(N/C(N)=N/C(=S)Nc3cccc(C)c3)nc(C)c2c1 | inconclusive [activator, single point] | 
25 | COc1ccc(/C=C2\SC(=O)N(CCCC(=O)Nc3cc(Cl)ccc3C(=O)O)C2=O)cc1 | inactive | 
26 | CCc1ccc(C2=CC(c3cccc(OC)c3OC)n3c(nc4ccccc43)N2)cc1 (centres undefined) | inactive | 
27 | COc1ccc(C(=S)N2CCN(c3ccccc3C)CC2)cc1OC | inconclusive [activator, single point] | 
28 | Cc1ccc(CNC(=O)COC(=O)c2ccc(Cl)c(N)c2)cc1 | inconclusive [activator, single point] | 
29 | COc1ccc(N2CCN(CCC(=O)c3ccc4ccccc4c3)CC2)cc1 | inconclusive [activator, partial curve] | 
30 | Nn1cc(-c2ccccc2)nc1SCC(=O)NCC(F)(F)F | inactive | 
31 | COc1cc(/C=N/O)cc(Br)c1OCc1ccc(Cl)cc1 | inconclusive [activator, partial curve] | 
32 | FC(F)(F)c1ccccc1NC(=S)Nn1cnnc1 | inconclusive [activator, single point] | 
33 | O=C(NCc1ccco1)c1ccccc1-c1ccc(C(F)(F)F)cc1 | inconclusive [activator, single point] | 
34 | CC1CCC(=O)N(CCOc2ccccc2)CC1 (centres undefined) | inconclusive [activator, full curve, poor fit] | 
35 | CC(C)Sc1nnc(Nc2ccccc2)s1 | inconclusive [activator, partial curve] | 
36 | CC1CCC2C(C1)Nc1c(C(=O)O)cccc1C2(C)C (centres undefined) | inconclusive [activator, single point] | 
37 | COc1cccc(C(C(=O)NC2CCCCC2)N(C(=O)CNC(=O)c2ccco2)c2cccnc2)c1 (centres undefined) | inconclusive [activator, single point] | 
38 | Cc1ccc(/C(N)=N/OC(=O)C(C)c2ccc([N+](=O)[O-])cc2)cc1 (centres undefined) | inactive | 
39 | COC(=O)Nc1ccc2c(c1)N(C(=O)CCCl)c1ccccc1S2 | inconclusive [activator, partial curve] | 
40 | CCCC1CC(C)(c2csc(Nc3ccc(OCC)cc3)n2)OC1=O (centres undefined) | active: 17.8 µM | 
41 | COc1ccnc2c1c(=O)n(Cc1ccc(Cl)cc1Cl)c(=O)n2C | inconclusive [activator, single point] | 
42 | COc1ccccc1C(=O)Nc1ccc(OCC(=O)N2CCCCC2)cc1 | inconclusive [activator, partial curve, poor fit] | 
43 | Cc1cccc(CC2C(=O)Nc3ccccc32)c1 (centres undefined) | inconclusive [activator, single point] | 
44 | Cc1c(C(=O)NCc2ccc3c(c2)OCO3)sc(=O)n1Cc1ccc(-c2ccccc2)cc1 | inactive | 
45 | CCOc1ccccc1-n1nnc(-c2nc(-c3ccccc3)no2)c1N | inactive | 
46 | CCOc1ccc(C2=NC(c3cccs3)=Nc3ccc(C(C)C)cc3N2)cc1 |  | inactive: 0% [at 9.22 µM]

Row | Compound | Potency | growth rescue (activation)
47 | Cc1cc(OC(=O)c2ccco2)c(Sc2ccccc2[N+](=O)[O-])c(=O)o1 | inactive | 
48 | Cn1c(N2CCCC2)nc2c1c(=O)n(Cc1ccc(Cl)cc1)c(=O)n2C | inconclusive [activator, single point] | 
49 | COc1ccc2cc3cc(C(=O)NCc4ccc5c(c4)OCO5)oc3nc2c1 | inactive | 
50 | Cc1ccc(S(=O)(=O)SCCCSS(=O)(=O)c2ccc(C)cc2)cc1 |  | inconclusive: -88.4% [activator]
51 | O=C1CC(c2ccc(F)cc2)c2cc3c(cc2N1)CCC3 (centres undefined) | inactive | 
52 | CC(O)(c1ccc(F)c(F)c1)c1nc(-c2cnc3ccccc3c2)cs1 (centres undefined) | inconclusive [activator, single point] | 
53 | CCCc1nc(SCC(=O)Nc2cc(C)on2)c2ccccc2n1 | inconclusive [activator, partial curve] | 
54 | Cc1ccccc1NS(=O)(=O)c1ccc(Br)s1 | inconclusive [activator, partial curve] | 
55 | CC1=NN(c2nc(-c3ccc(Cl)cc3)cs2)C(=O)C1 | inconclusive [activator, partial curve] | 
56 | O=C(NCC(c1cccs1)N1CCOCC1)C1CCN(S(=O)(=O)c2cc(Cl)ccc2Cl)CC1 (centres undefined) | inconclusive [activator, partial curve, poor fit] | 
57 | COc1ccc(-c2nc3sc(CCNC(=O)c4cc(Cl)ccc4OC)c(C)n3n2)cc1 | inconclusive [activator, single point] | 
58 | O=C(NCc1ccccc1OC(F)(F)F)C1CCC(=O)N(Cc2ccccn2)C1 (centres undefined) | inconclusive [activator, single point] | 
59 | COc1ccc2nc(C)cc(Sc3nc4ccccc4s3)c2c1 | active: 25.1 µM | 
60 | O=C(NCc1ccco1)c1cc([N+](=O)[O-])ccc1N1CCCCC1 | active: 14.1 µM | 
61 | COc1ccc(Br)cc1C1=CC(=O)C[C@H](c2ccc(F)cc2)C1 | inconclusive [activator, single point] | 
62 | CCNC(=O)C1(C)CCCN(C(=O)c2cc(OC)ccc2Br)C1 (centres undefined) | inconclusive [activator, full curve, poor fit] | 
63 | COc1ccc(CCN2C(=O)c3oc4ccc(F)cc4c(=O)c3C2c2ccc(C(C)(C)C)cc2)cc1 (centres undefined) | inactive | 
64 | CCOc1ccc(C2CC(=O)c3c([nH]c(C(=O)OCc4ccccc4)c3C)C2)cc1 (centres undefined) | inactive | 
65 | COc1cc(-c2coc3c(C(=O)NCc4ccccc4)cccc23)ccc1O | active: 12.6 µM | 
66 | CCSc1nnc(NS(=O)(=O)c2ccc(OC)cc2)s1 | inconclusive [activator, partial curve, poor fit] | 
67 | COc1ccc(OC)c(C(=O)NC2CC(C)(C)Cc3c2cnn3-c2ccccc2)c1 (centres undefined) | inconclusive [activator, single point] | 
68 | Oc1ccc(/C=N/N(Cc2ccccc2)c2ccccc2)c(O)c1O | inconclusive [activator, partial curve] | 
69 | COc1ccccc1N1CCN(c2ncnc3c2cnn3C)CC1 | inconclusive [activator, partial curve] | 
